Measurements as given in the supplement of paper PMC9334596.
Several values for one entry are separate records, joined by “and”; a condition that tells them apart may be missing. Equal entries are not always repeated. In all, about 5,300 compounds were measured (“PER2::LUC luminescence relative to vehicle control”: median about 0.96, highest 2% from about 1.3 on). This is one part of the list.

Test system: mPer2Luc MEF
Test: PER2::LUC luminescence relative to vehicle control (fold of vehicle); higher = higher PER2::LUC reporter signal
Settings: 10 µM
Procedure, shortened: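 The value is PER2::LUC luminescence expressed as fold of vehicle control. Mouse embryonic fibroblasts carrying the mPer2Luc reporter were seeded at ~3000 cells per well in 384-well plates and grown in DMEM with 10% FBS at 37 °C and 5% CO2. Compounds from commercial libraries were added at 10 μM 48 h after seeding, and luminescence was read with the ONE-Glo luciferase assay system 24 h and 30 h after treatment, followed by an alamarBlue viability assay.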

Structure (SMILES) | PER2::LUC luminescence (time after treatment 24 h) | PER2::LUC luminescence (time after treatment 30 h)
O=C(O)CCc1ccc(NCc2cccc(Oc3ccccc3)c2)cc1 | 1.24 | 1.29
Cc1[nH]cnc1CN1CCc2c(c3ccccc3n2C)C1=O | 0.875 | 0.768
O=C1NC(=O)c2cc(Nc3ccccc3)c(Nc3ccccc3)cc21 | 1 | 0.781
CN(C)Cc1nc(-c2cn(C)c3ccccc23)no1 | 0.847 | 0.949
CC[C@H](C)[C@H]1O[C@]2(C=C[C@@H]1C)C[C@@H]1C[C@@H](C/C=C(\C)[C@@H](O[C@H]3C[C@H](OC)[C@@H](O[C@H]4C[C@H](OC)[C@@H](O)[C@H](C)O4)[C@H](C)O3)[C@@H](C)/C=C/C=C3\CO[C@@H]4[C@H](OC)C(C)=C[C@@H](C(=O)O1)[C@]34O)O2 | 0.767 | 0.843
COc1cc(C(C)C)c(Oc2cnc(N)nc2N)cc1I | 1.06 | 1.05
Cc1cc2nc3c(=O)[nH]c(=O)nc-3n(C[C@H](O)[C@H](O)[C@H](O)CO)c2cc1C | 1.08 | 1
CCCOc1ccc2[nH]c(NC(=O)OC)nc2c1 | 0.469 | 0.639
COc1cn(-c2ccc(-n3cccn3)cc2F)nc(-c2ccnn2-c2ccccc2)c1=O | 0.925 | 0.973
Nc1ncnc2c1ncn2[C@@H]1O[C@H](CO)[C@@H](O)[C@@H]1O | 0.541 | 0.839
CC1CCN(CC[C@H]2CCCN2S(=O)(=O)c2cccc(O)c2)CC1 | 1.04 | 0.906
C[C@H]1C[C@H]2[C@@H]3CCC4=CC(=O)C=C[C@]4(C)[C@@]3(F)[C@@H](O)C[C@]2(C)[C@@]1(O)C(=O)COP(=O)(O)O | 0.673 | 0.992
CCCCC(CC)COC(=O)CC(C(=O)OCC(CC)CCCC)S(=O)(=O)O (centres undefined) | 0.908 | 1.06
CC(C)C[C@H](NC(=O)[C@H](Cc1ccccc1)NC(=O)CNC(=O)CNC(=O)[C@@H](N)Cc1ccc(O)cc1)C(=O)N[C@@H](CCCNC(=N)N)C(=O)N[C@@H](CCCNC(=N)N)C(=O)N[C@@H](CCC(N)=O)C(=O)N[C@@H](Cc1ccccc1)C(=O)N[C@@H](CCCCN)C(=O)N[C@H](C(=O)N[C@H](C(=O)N[C@H](C(=O)O)[C@@H](C)O)C(C)C)C(C)C | 1.08 | 0.945
NC[C@@H]1O[C@H](C23CC4CC(CC(C4)C2)C3)Cc2c1ccc(O)c2O | 0.66 | 0.765
CC1OC2(CS1)CN1CCC2CC1 (centres undefined) | 1.08 | 0.989
CC[C@H](C)[C@H](N)C(=O)O | 0.96 | 0.942
C=CC(=O)Nc1cccc(Oc2nc(Nc3ccc(N4CCN(C)CC4)cc3)ncc2Cl)c1 | 1.09 | 1.05
C[C@@](Cc1ccc(O)c(O)c1)(NN)C(=O)O | 1.03 | 0.949

Structure (SMILES) | PER2::LUC luminescence (time after treatment 24 h) | PER2::LUC luminescence (time after treatment 30 h)
CCOc1nc2cccc(C(=O)O)c2n1Cc1ccc(-c2ccccc2-c2nnn[nH]2)cc1 | 0.879 | 0.756
O=c1[nH]cnc2nc[nH]c12 | 1.01 | 0.986
O=C(Nc1cccnc1)c1cc(-c2ccnc(F)c2)ccc1OCc1ccccc1 | 0.633 | 0.811
O=C(Nc1cccc(NC(=O)c2cccc(O)c2O)c1)c1cccc(O)c1O | 0.916 | 1.34
O=C(O)/C=C/C(O)c1ccc(Cl)cc1 (centres undefined) | 0.988 | 1.16
C[C@]12CCC(=O)C=C1CC[C@@H]1[C@@H]2CC[C@@]2(C)[C@H]1CC[C@]2(O)C(=O)CO | 0.614 and 0.571 | 0.803 and 0.71
COC(=O)C1=C(C)NC(C)=C(C(=O)OC(C)(C)CN(C)CCC(c2ccccc2)c2ccccc2)C1c1cccc([N+](=O)[O-])c1 (centres undefined) | 1.14 and 0.832 | 1.25 and 0.965
COc1ccccc1N1CCN(CCCNc2c(C)c(=O)n(C)c(=O)n2C)CC1 | 0.888 | 1.03
O=C1CC[C@@H](C(=O)N2CSC[C@H]2C(=O)O)N1 | 0.6 | 1.01
c1ccc(-c2ccc(C(c3ccccc3)n3ccnc3)cc2)cc1 (centres undefined) | 1.45 | 1.32
Oc1c(Cl)cc(Cl)c2cccnc12 | 1.02 and 1.17 | 0.763 and 1.04
COc1ccc2cc1Oc1ccc(cc1)C[C@H]1c3cc(c(OC)cc3CCN1C)Oc1c(OC)c(OC)c(OC)c3c1[C@H](C2)N(C)CC3 | 0.81 | 0.85
COc1cc2ncnc(Nc3cccc(Br)c3)c2cc1OC | 0.863 and 0.79 and 0.783 | 0.772 and 0.745 and 0.656
CN(C)CCC(c1ccc(Br)cc1)c1ccccn1 (centres undefined) | 0.784 and 0.446 | 0.719 and 0.735
COc1ccc(Cl)cc1NC(=O)Nc1cc(C)nc2ccccc12 | 0.757 | 0.791
COc1cc(Nc2c(C#N)cnc3cc(OCCCN4CCN(C)CC4)c(OC)cc23)c(Cl)cc1Cl | 0.21 | 0.253
CCCCCCCCCC(=O)N[C@@H](Cc1c[nH]c2ccccc12)C(=O)N[C@H](CC(N)=O)C(=O)N[C@@H](CC(=O)O)C(=O)N[C@@H]1C(=O)NCC(=O)N[C@@H](CCCN)C(=O)N[C@@H](CC(=O)O)C(=O)N[C@H](C)C(=O)N[C@@H](CC(=O)O)C(=O)NCC(=O)N[C@H](CO)C(=O)N[C@@H]([C@H](C)CC(=O)O)C(=O)N[C@@H](CC(=O)c2ccccc2N)C(=O)O[C@@H]1C | 1.18 | 1.21
CC(C)=CC(=O)CCC(=O)N1CCN(Cc2cc3nc(-c4cccc5[nH]ncc45)nc(N4CCOCC4)c3s2)CC1 | 0.459 | 0.371
